Data published in the supplement of paper PMC6135742.
Structures can show the parent of a compound that is named as a salt. ± gives the standard deviation of the averaged measurements. In all, about 2,600 compounds were measured (“total cell number (DAPI+ nuclei) relative to DMSO vehicle control”: median about -1.4, lowest 2% from about -23 on). The list shows a part of the results.

System: jimpy (Plp1 jimpy) mouse iPSC-derived oligodendrocyte progenitor cells
Test: total cell number (DAPI+ nuclei) relative to DMSO vehicle control (SDs above negative control mean); higher = more surviving cells
Details: 10 µM; 3 days

`CN(C)CC(c1ccc(O)cc1)C1(O)CCCCC1` (centres undefined) [Desvenlafaxine] was tested. Which total cell number did it give?
The total cell number was -0.735.

`CN(C)CC(c1ccc(O)cc1)C1(O)CCCCC1` (centres undefined) [Desvenlafaxine Succinate] was tested. Which total cell number did it give?
Its total cell number is -3.69.

Which total cell number does the source give for `O=C(NOCC(O)CO)c1cc(Br)c(F)c(F)c1Nc1ccc(I)cc1F` (centres undefined) here?
The total cell number was -7.65.

With `CC(=O)SCC(Cc1ccccc1)C(=O)NCC(=O)OCc1ccccc1` (centres undefined) [Racecadotril] as the molecule, how does the total cell number read?
Its total cell number is -0.339.

How did the total cell number turn out when `C[C@H](CCC(=O)O)[C@H]1CC[C@H]2[C@@H]3CC[C@@H]4C[C@H](O)CC[C@]4(C)[C@H]3CC[C@]12C` [Lithocholic acid] was run?
The total cell number was -1.83.

Which total cell number does the source give for `O=C(O)/C=C/c1cnc[nH]1` [4-Imidazoleacrylic acid] here?
Its total cell number is 0.0843.

For `Cn1c(Nc2ccc(C(F)(F)F)cc2)nc2cc(Oc3ccnc(-c4ncc(C(F)(F)F)[nH]4)c3)ccc21`, which total cell number is on record?
Its total cell number is -9.57.

How did the total cell number turn out when `COC(=O)C1=C(C)NC(C)=C(C(=O)OC(C)C)C1c1cccc2nonc12` (centres undefined) [Isradipine] was run?
Its total cell number is -1.15.

With `CCOC(=O)Nc1ccc(NCc2ccc(F)cc2)nc1N` [Flupirtine maleate] as the molecule, how does the total cell number read?
Its total cell number is -1.27 ± 0.77.

With `O=C(O)CCCC[C@@H]1SC[C@@H]2NC(=O)N[C@@H]21` [Biotin (Vitamin B7)] as the molecule, how does the total cell number read?
Its total cell number is -1.61.

For `CC1COc2c(N3CCN(C)CC3)c(F)cc3c(=O)c(C(=O)O)cn1c23` (centres undefined) [Ofloxacin], which total cell number is on record?
The total cell number was -0.836.

How did the total cell number turn out when `CC(C)C(=O)Nc1ccc([N+](=O)[O-])c(C(F)(F)F)c1` [Flutamide] was run?
Its total cell number is -0.0898 ± 1.8.

Which total cell number does the source give for `CC(=O)Oc1cc2c(s1)CCN(C(C(=O)C1CC1)c1ccccc1F)C2` (centres undefined) [Prasugrel] here?
The total cell number was -0.502.

With `Cn1cnc([N+](=O)[O-])c1Sc1ncnc2[nH]cnc12` [Azathioprine] as the molecule, how does the total cell number read?
The total cell number was -4.77 ± 2.

Which total cell number does the source give for `CC(=O)OCC[N+](C)(C)C` [Acetylcholine Chloride] here?
Its total cell number is 3.81.

How did the total cell number turn out when `C[C@H](c1ccc(F)cc1CCCC(=O)O)N(c1cc(F)ccc1F)S(=O)(=O)c1ccc(Cl)cc1` was run?
The total cell number was -4.06.

For `CC1(C)CCC2=C(O1)c1ccccc1C(=O)C2=O` [beta-Lapachone], which total cell number is on record?
The total cell number was -11.3.

With `CC1(C)CCC2=C(O1)c1ccccc1C(=O)C2=O` [Beta-Lapachone] as the molecule, how does the total cell number read?
The total cell number was -16.5.

With `S=C(NCc1ccc2c(c1)OCO2)N1CCN(c2ncnc3c2oc2ccccc23)CC1` [Amuvatinib (MP-470)] as the molecule, how does the total cell number read?
Its total cell number is -20.1.

With `OCCN1C[C@H](O)[C@@H](O)[C@H](O)[C@H]1CO` [Miglitol] as the molecule, how does the total cell number read?
The total cell number was -0.339.

Which total cell number does the source give for `CC(C)CN(C[C@@H](O)[C@H](Cc1ccccc1)NC(=O)O[C@H]1CO[C@H]2OCC[C@H]21)S(=O)(=O)c1ccc(N)cc1` [Darunavir Ethanolate] here?
Its total cell number is 1.35.

`COc1cc(/C=C/C(=O)CC(=O)/C=C/c2ccc(O)c(OC)c2)ccc1O` [Curcumin] was tested. Which total cell number did it give?
The total cell number was -15.5.

`O=C1C(SCCO)=C(SCCO)C(=O)c2ccccc21` was tested. Which total cell number did it give?
Its total cell number is -2.12.

With `Cc1cc2c(F)c(Oc3ncnn4cc(OC[C@@H](C)O)c(C)c34)ccc2[nH]1` as the molecule, how does the total cell number read?
The total cell number was -1.9.

With `O=C(O)CSCC(=O)NC1CCSC1=O` (centres undefined) [Erdosteine] as the molecule, how does the total cell number read?
The total cell number was 1.24.

For `Fc1ccc([C@@H]2CCNC[C@H]2COc2ccc3c(c2)OCO3)cc1` [Paroxetine hydrochloride hemihydrate (MW = 374.83)], which total cell number is on record?
The total cell number was -10.1.

With `Fc1ccc([C@@H]2CCNC[C@H]2COc2ccc3c(c2)OCO3)cc1` [Paroxetine HCl] as the molecule, how does the total cell number read?
The total cell number was -11.

How did the total cell number turn out when `Nc1nc(O)c2ncn(CCC(CO)CO)c2n1` [Penciclovir] was run?
The total cell number was -0.0924.

For `CN(C/C=C/C#CC(C)(C)C)Cc1cccc2ccccc12` [Terbinafine HCl], which total cell number is on record?
Its total cell number is 1.27.

With `CN(C/C=C/C#CC(C)(C)C)Cc1cccc2ccccc12` [Terbinafine] as the molecule, how does the total cell number read?
The total cell number was 0.0625.

`O=c1[nH]cnc2c1ncn2[C@H]1CC[C@@H](CO)O1` [Didanosine] was tested. Which total cell number did it give?
Its total cell number is -0.938.

With `CCCC(=O)OCOC(=O)C1=C(C)NC(C)=C(C(=O)OC)C1c1cccc(Cl)c1Cl` (centres undefined) [Clevidipine Butyrate] as the molecule, how does the total cell number read?
The total cell number was -0.295.

With `NC(CO)C(=O)NNCc1ccc(O)c(O)c1O` (centres undefined) [Benserazide HCl] as the molecule, how does the total cell number read?
The total cell number was -0.925.

How did the total cell number turn out when `NC(CO)C(=O)NNCc1ccc(O)c(O)c1O` (centres undefined) [Benserazide hydrochloride] was run?
Its total cell number is 2.53.

Which total cell number does the source give for `C[C@H]1COc2c(N3CCN(C)CC3)c(F)cc3c(=O)c(C(=O)O)cn1c23` [Levofloxacin] here?
The total cell number was 0.884.

With `CN(C)CCCN1c2ccccc2CCc2ccccc21` [Imipramine hydrochloride] as the molecule, how does the total cell number read?
Its total cell number is -3.21.

For `C[N+](C)(C)CCO.[Cl-]` [Choline Chloride], which total cell number is on record?
The total cell number was 0.55.

How did the total cell number turn out when `CN1CCN(C2CCN(C(=O)Nc3cc(Oc4ccc(NC(=O)C5(C(=O)Nc6ccc(F)cc6)CC5)c(F)c4)ccn3)CC2)CC1` [Golvatinib (E7050)] was run?
Its total cell number is -11.9.

`C/C=C1\[C@H]2C=C(C)C[C@]1(N)c1ccc(=O)[nH]c1C2` [(-)-Huperzine A (HupA)] was tested. Which total cell number did it give?
Its total cell number is -0.573.

`Nc1ccc2c3c(cccc13)C(=O)NC2=O` [4-Amino-1,8-naphthalimide] was tested. Which total cell number did it give?
Its total cell number is -4.86.

`CCOC(=O)[C@H](CCc1ccccc1)N[C@@H](C)C(=O)N1Cc2cc(OC)c(OC)cc2C[C@H]1C(=O)O` [Moexipril HCl] was tested. Which total cell number did it give?
The total cell number was -1.62.

Which total cell number does the source give for `Cc1cc(O)c2c(c1)C(=O)c1cc(O)cc(O)c1C2=O` [Emodin] here?
Its total cell number is 1.35 ± 3.1.

Which total cell number does the source give for `O=C1NC(=O)/C(=C/c2cccc(C(F)(F)F)c2)S1` here?
Its total cell number is 1.23.

With `Clc1ccc(Nc2nnc(Cc3ccncc3)c3ccccc23)cc1` [Vatalanib (PTK787) 2HCl] as the molecule, how does the total cell number read?
Its total cell number is -11.6.

How did the total cell number turn out when `Cn1cc(-c2ccc3nnc(Sc4ccc5ncccc5c4)n3n2)cn1` was run?
The total cell number was -3.2.

How did the total cell number turn out when `CCC(C)n1ncn(-c2ccc(N3CCN(c4ccc(OCC5COC(Cn6cncn6)(c6ccc(Cl)cc6Cl)O5)cc4)CC3)cc2)c1=O` (centres undefined) [Itraconazole] was run?
Its total cell number is -6.79.

For `Cc1cccc(Nc2ccccc2C(=O)O)c1C` [Mefenamic Acid], which total cell number is on record?
The total cell number was -2.09.

Which total cell number does the source give for `CCOc1cc(N)c(Cl)cc1C(=O)NCC1CN(Cc2ccc(F)cc2)CCO1` (centres undefined) [Mosapride Citrate] here?
The total cell number was 10.9.

How did the total cell number turn out when `CC(N)C(=O)OC(C)(C)Cc1ccc(Cl)cc1` (centres undefined) [Alaproclate hydrochloride] was run?
Its total cell number is -0.939.

How did the total cell number turn out when `C[C@H]1[C@H](OC(=O)CCC(=O)O)O[C@@H]2O[C@@]3(C)CC[C@H]4[C@H](C)CC[C@@H]1[C@@]24OO3` [Artesunate] was run?
The total cell number was -7.08.

For `O=C1c2c(O)cc(O)cc2O[C@H](c2cc(O)c(O)c(O)c2)[C@H]1O` [Dihydromyricetin], which total cell number is on record?
Its total cell number is -2.24.

How did the total cell number turn out when `Cc1ccc(-c2c(-c3nn(C)c4ncnc(N5CC[C@H](N6CCCCC6)C5)c34)cnn2C)cc1` was run?
Its total cell number is -2.1.

Which total cell number does the source give for `O=C1OC(CN2CCOCC2)CN1/N=C/c1ccc([N+](=O)[O-])o1` (centres undefined) [Furaltadone HCl] here?
Its total cell number is -3.6.

`CNCCCN1c2ccccc2CCc2ccccc21` [Desipramine hydrochloride] was tested. Which total cell number did it give?
The total cell number was -5.78.

For `c1cn2cc(-c3ccc4cn[nH]c4c3)nc(Nc3ccc(N4CCOCC4)cc3)c2n1`, which total cell number is on record?
Its total cell number is -8.75.

How did the total cell number turn out when `CC(=O)OCC1=C(C(=O)O)N2C(=O)[C@@H](NC(=O)Cc3cccs3)[C@H]2SC1` [Cephalothin sodium] was run?
Its total cell number is -0.915.

`Clc1ccc(C(Cn2ccnc2)OCc2csc3c(Cl)cccc23)c(Cl)c1` (centres undefined) [Sertaconazole nitrate] was tested. Which total cell number did it give?
Its total cell number is -6.02.

For `C=CCn1c(=O)c2cnc(Nc3ccc(N4CCN(C)CC4)cc3)nc2n1-c1cccc(C(C)(C)O)n1`, which total cell number is on record?
The total cell number was -14.6.

Which total cell number does the source give for `Cc1nc2n(c(=O)c1CCN1CCC(c3noc4cc(F)ccc34)CC1)CCCC2O` (centres undefined) [Paliperidone] here?
The total cell number was -0.241.

Which total cell number does the source give for `CCCCc1nc(Cl)c(CO)n1Cc1ccc(-c2ccccc2-c2nnn[nH]2)cc1` [Losartan Potassium (DuP 753)] here?
Its total cell number is 3.6.

With `CC1(C)S[C@@H]2[C@H](NC(=O)Cc3ccccc3)C(=O)N2[C@H]1C(=O)O` [Penicillin G Sodium] as the molecule, how does the total cell number read?
The total cell number was 0.293.

How did the total cell number turn out when `O=C(Nc1cccc2cccnc12)c1ccc(N2C(=O)[C@@H]3[C@H](C2=O)[C@@H]2C=C[C@H]3C2)cc1` [IWR-1-endo] was run?
Its total cell number is -6.81.

How did the total cell number turn out when `CCC(=O)OCC(=O)[C@@]1(OC(=O)CC)[C@@H](C)C[C@H]2[C@@H]3CCC4=CC(=O)C=C[C@]4(C)[C@@]3(Cl)[C@@H](O)C[C@@]21C` [Beclomethasone dipropionate] was run?
Its total cell number is 1.79.

With `CN(C)c1ccccc1CN1CCCN(Cc2ccccc2N(C)C)C1c1ccncc1` as the molecule, how does the total cell number read?
The total cell number was -6.57.

With `O=c1c2ccccc2nc2n1CCc1c-2[nH]c2ccccc12` [Rutaecarpine] as the molecule, how does the total cell number read?
The total cell number was -1.86 ± 1.9.

With `O=C(/C=C/C=C/c1ccc2c(c1)OCO2)N1CCCCC1` [Piperine] as the molecule, how does the total cell number read?
The total cell number was 1.48.

Which total cell number does the source give for `COCC(=O)O[C@]1(CCN(C)CCCc2nc3ccccc3[nH]2)CCc2cc(F)ccc2[C@@H]1C(C)C` [Mibefradil dihydrochloride] here?
Its total cell number is -8.78.

How did the total cell number turn out when `O=C(Nc1cccc(Nc2ncc(Br)c(NCCc3cnc[nH]3)n2)c1)N1CCCC1` was run?
The total cell number was -24.3.

Which total cell number does the source give for `COc1ccccc1N1CCN(CCCNc2cc(=O)n(C)c(=O)n2C)CC1` [Urapidil hydrochloride] here?
The total cell number was -1.36.

How did the total cell number turn out when `COc1ccccc1N1CCN(CCCNc2cc(=O)n(C)c(=O)n2C)CC1` [Urapidil HCl] was run?
Its total cell number is -1.37.

For `O=C(CCCN1CCC(O)(c2cccc(C(F)(F)F)c2)CC1)c1ccc(F)cc1` [Trifluperidol hydrochloride], which total cell number is on record?
The total cell number was -3.51.

How did the total cell number turn out when `COc1nc(N)nc2c1ncn2[C@@H]1O[C@H](CO)[C@@H](O)[C@@H]1O` [Nelarabine] was run?
Its total cell number is -2.12.

With `CCc1cnn2c(NCc3ccc[n+]([O-])c3)cc(N3CCCC[C@H]3CCO)nc12` as the molecule, how does the total cell number read?
Its total cell number is -9.73.

How did the total cell number turn out when `C[C@@]1(c2cc(-c3cncnc3)c(F)cc2F)CCSC(N)=N1` was run?
Its total cell number is -3.15.

How did the total cell number turn out when `O=[N+]([O-])c1cc2nc(O)c(O)nc2cc1[N+](=O)[O-]` was run?
Its total cell number is -0.0399.

With `CC(=O)/C(C)=N/O` [2,3-Butanedione monoxime] as the molecule, how does the total cell number read?
Its total cell number is -0.361.

Which total cell number does the source give for `CC(C)NCC(O)c1cc(O)cc(O)c1` (centres undefined) [Metaproterenol hemisulfate] here?
The total cell number was -0.411.

`C#CCN(C)CCCOc1ccc(Cl)cc1Cl` [Clorgyline hydrochloride] was tested. Which total cell number did it give?
Its total cell number is -0.0667.

`O=C(O)CN(CCN(CC(=O)O)CC(=O)O)CCN(CC(=O)O)CC(=O)O` [Diethylenetriaminepentaacetic acid] was tested. Which total cell number did it give?
The total cell number was -2.48.
